The list shows a part of the results. Single values are uncertain, as repeats are few or missing.
System: SkMel28
Experiment: cell count relative to DMSO control; melanoma cells; higher = more viable cells
Conditions: library dose: standard library concentration; 72 h
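Note: cells treated in 1,536-well plates, then fixed and DAPI-stained, with nuclei counted from automated high-throughput microscope images.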

**Q.** `COc1ccc(-c2ccc3c(N4CCOCC4)nc(N4C[C@@H](C)O[C@@H](C)C4)nc3n2)cc1CO` + Oc1nc(-c2ccc(C(F)(F)F)cc2)nc2c1CSCC2 [XAV939] (first compound 0.1 µM, partner dose 10 µM) was tested. Which cell count did it give?
**A.** 75.6%

**Q.** How did the cell count turn out when `COc1ccc(-c2ccc3c(N4CCOCC4)nc(N4C[C@@H](C)O[C@@H](C)C4)nc3n2)cc1CO` + O=C1NC(=O)/C(=C/c2ccc(-c3ccc(F)cc3O)o2)S1 [AS252424] (first compound 0.1 µM, partner dose 5 µM) was run?
**A.** 106%

**Q.** With `COC(=O)c1sccc1S(=O)(=O)Nc1ccc(Nc2ccccc2)cc1OC` + Cc1cc([N+](=O)[O-])ccc1NS(=O)(=O)c1cc(Cl)ccc1Cl [FH535] (first compound 5 µM, partner dose 5 µM) as the compound, how does the cell count read?
**A.** 64.5%

**Q.** How did the cell count turn out when `CCN(CC)CCCCNc1ncc2cc(-c3cc(OC)cc(OC)c3)c(NC(=O)NC(C)(C)C)nc2n1` + Cn1cc(/C=C2\C(=O)Nc3cccnc32)c2ccccc21 [GW441756] (first compound 0.5 µM, partner dose 2 µM) was run?
**A.** 87.7%

**Q.** `CCN(CC)CCCCNc1ncc2cc(-c3cc(OC)cc(OC)c3)c(NC(=O)NC(C)(C)C)nc2n1` + c1cc(-c2cnn3cc(-c4ccc(OCCN5CCCCC5)cc4)cnc23)ccn1 [Dorsomorphin] (first compound 0.5 µM, partner dose 2 µM) was tested. Which cell count did it give?
**A.** 85.9%

**Q.** How did the cell count turn out when `CCN(CC)CCCCNc1ncc2cc(-c3cc(OC)cc(OC)c3)c(NC(=O)NC(C)(C)C)nc2n1` + O=C(O)C(=O)Nc1sc2c(c1C(=O)O)CCNC2 [TCS401] (first compound 0.5 µM, partner dose 8.33333 µM) was run?
**A.** 106%

**Q.** For `COc1ccc(COc2ccc(Cc3cnc(N)nc3N)cc2OC)cc1` + O=S(=O)(c1ccccc1)N(CC(F)(F)F)c1ccc(C(O)(C(F)(F)F)C(F)(F)F)cc1 [T0901317] (first compound 5 µM, partner dose 7 µM), which cell count is on record?
**A.** 72.1%

**Q.** `O=S(=O)(c1ccccc1)N(CC(F)(F)F)c1ccc(C(O)(C(F)(F)F)C(F)(F)F)cc1` + Cn1cc(/C=C2\C(=O)Nc3cccnc32)c2ccccc21 [GW441756] (first compound 7 µM, partner dose 2 µM) was tested. Which cell count did it give?
**A.** 102%

**Q.** For `Cn1cc(/C=C2\C(=O)Nc3cccnc32)c2ccccc21` + CC(C)CCN1c2nc(Nc3cc(F)c(O)c(F)c3)ncc2N(C)C(=O)C1C [BID1870] (first compound 2 µM, partner dose 1 µM), which cell count is on record?
**A.** 50.1%

**Q.** For `COC(=O)c1sccc1S(=O)(=O)Nc1ccc(Nc2ccccc2)cc1OC` + COc1cc2ncnc(Nc3ccc(Oc4ccccc4)cc3)c2cc1OC [SrcI1] (first compound 5 µM, partner dose 10 µM), which cell count is on record?
**A.** 82.4%

**Q.** `O=S(=O)(c1ccccc1)N(CC(F)(F)F)c1ccc(C(O)(C(F)(F)F)C(F)(F)F)cc1` + CCCCCCCCCCCC1=C(O)C(=O)C=C(O)C1=O [Embelin] (first compound 7 µM, partner dose 6 µM) was tested. Which cell count did it give?
**A.** 95.2%

**Q.** `N#Cc1c(O)c2c(-c3ccc(-c4ccccc4O)cc3)csc2[nH]c1=O` + COc1ccc(-c2ccc3c(N4CCOCC4)nc(N4C[C@@H](C)O[C@@H](C)C4)nc3n2)cc1CO [KU0063794] (first compound 10 µM, partner dose 0.1 µM) was tested. Which cell count did it give?
**A.** 84.9%

**Q.** Which cell count does the source give for `COc1ccc2c(c1)CCC1C2CCC2(C)C(NCCCCCCN3C(=O)C=CC3=O)CCC12` (stereo not drawn) + CC(C)CCN1c2nc(Nc3cc(F)c(O)c(F)c3)ncc2N(C)C(=O)C1C [BID1870] (first compound 2 µM, partner dose 1 µM) here?
**A.** 61.8%

**Q.** `Oc1cc(-c2nc(-c3ccccc3)[nH]c2-c2ccncc2)ccc1Cl` + O=C1NC(=O)/C(=C/c2ccc(-c3ccc(F)cc3O)o2)S1 [AS252424] (first compound 1 µM, partner dose 5 µM) was tested. Which cell count did it give?
**A.** 46.8%

**Q.** Which cell count does the source give for `COc1ccc2c(c1)CCC1C2CCC2(C)C(NCCCCCCN3C(=O)C=CC3=O)CCC12` (stereo not drawn) + c1cc(-c2cnn3cc(-c4ccc(OCCN5CCCCC5)cc4)cnc23)ccn1 [Dorsomorphin] (first compound 2 µM, partner dose 2 µM) here?
**A.** 57.8%

**Q.** Which cell count does the source give for `Cn1cc(/C=C2\C(=O)Nc3cccnc32)c2ccccc21` + O=c1cc(-c2cccc3c2Sc2ccccc2S3)oc(N2CCOCC2)c1 [KU55933] (first compound 2 µM, partner dose 5 µM) here?
**A.** 85%

**Q.** `O=S(=O)(c1ccccc1)N(CC(F)(F)F)c1ccc(C(O)(C(F)(F)F)C(F)(F)F)cc1` + O=c1cc(-c2cccc3c2Sc2ccccc2S3)oc(N2CCOCC2)c1 [KU55933] (first compound 7 µM, partner dose 5 µM) was tested. Which cell count did it give?
**A.** 58.8%

**Q.** How did the cell count turn out when `COc1ccc(COc2ccc(Cc3cnc(N)nc3N)cc2OC)cc1` + Oc1cc(-c2nc(-c3ccccc3)[nH]c2-c2ccncc2)ccc1Cl [L779450] (first compound 5 µM, partner dose 1 µM) was run?
**A.** 33.2%

**Q.** For `N#Cc1c(O)c2c(-c3ccc(-c4ccccc4O)cc3)csc2[nH]c1=O` + c1cc(-c2cnn3cc(-c4ccc(OCCN5CCCCC5)cc4)cnc23)ccn1 [Dorsomorphin] (first compound 10 µM, partner dose 2 µM), which cell count is on record?
**A.** 95.7%

**Q.** Which cell count does the source give for `Oc1nc(-c2ccc(C(F)(F)F)cc2)nc2c1CSCC2` + COc1cc(N2CCC(N3CCN(C)CC3)CC2)ccc1Nc1ncc(Cl)c(Nc2ccccc2S(=O)(=O)C(C)C)n1 [NVP-TAE684] (first compound 10 µM, partner dose 0.4 µM) here?
**A.** 73.4%

**Q.** For `COc1ccc(-c2ccc3c(N4CCOCC4)nc(N4C[C@@H](C)O[C@@H](C)C4)nc3n2)cc1CO` + O=S(=O)(c1ccccc1)N(CC(F)(F)F)c1ccc(C(O)(C(F)(F)F)C(F)(F)F)cc1 [T0901317] (first compound 0.1 µM, partner dose 7 µM), which cell count is on record?
**A.** 53.6%

**Q.** With `COc1ccc(COc2ccc(Cc3cnc(N)nc3N)cc2OC)cc1` + CC(C)CCN1c2nc(Nc3cc(F)c(O)c(F)c3)ncc2N(C)C(=O)C1C [BID1870] (first compound 5 µM, partner dose 1 µM) as the compound, how does the cell count read?
**A.** 71.1%

**Q.** Which cell count does the source give for `c1cc(-c2cnn3cc(-c4ccc(OCCN5CCCCC5)cc4)cnc23)ccn1` [Dorsomorphin] + CC(C)CCN1c2nc(Nc3cc(F)c(O)c(F)c3)ncc2N(C)C(=O)C1C [BID1870] (first compound 2 µM, partner dose 1 µM) here?
**A.** 55.2%

**Q.** `N#Cc1c(O)c2c(-c3ccc(-c4ccccc4O)cc3)csc2[nH]c1=O` + O=c1cc(-c2cccc3c2Sc2ccccc2S3)oc(N2CCOCC2)c1 [KU55933] (first compound 10 µM, partner dose 5 µM) was tested. Which cell count did it give?
**A.** 115%

**Q.** With `N#Cc1c(O)c2c(-c3ccc(-c4ccccc4O)cc3)csc2[nH]c1=O` + CCN(CC)CCCCNc1ncc2cc(-c3cc(OC)cc(OC)c3)c(NC(=O)NC(C)(C)C)nc2n1 [PD173074] (first compound 10 µM, partner dose 0.5 µM) as the compound, how does the cell count read?
**A.** 70.3%

**Q.** For `Oc1cc(-c2nc(-c3ccccc3)[nH]c2-c2ccncc2)ccc1Cl` + Oc1nc(-c2ccc(C(F)(F)F)cc2)nc2c1CSCC2 [XAV939] (first compound 1 µM, partner dose 10 µM), which cell count is on record?
**A.** 40.5%

**Q.** With `O=S(=O)(c1ccccc1)N(CC(F)(F)F)c1ccc(C(O)(C(F)(F)F)C(F)(F)F)cc1` + Oc1cc(-c2nc(-c3ccccc3)[nH]c2-c2ccncc2)ccc1Cl [L779450] (first compound 7 µM, partner dose 1 µM) as the compound, how does the cell count read?
**A.** 28.1%

**Q.** With `N#Cc1c(O)c2c(-c3ccc(-c4ccccc4O)cc3)csc2[nH]c1=O` + Oc1cc(-c2nc(-c3ccccc3)[nH]c2-c2ccncc2)ccc1Cl [L779450] (first compound 10 µM, partner dose 1 µM) as the compound, how does the cell count read?
**A.** 43.6%

Source: the supplement of paper PMC4604168 (melanoma cell lines)
